{
  "source": "the RNAGym collection of RNA variant scans (doi:10.7554/elife.90254)",
  "parents": {"B1": {"name": "OR4K15 (parent)", "chain": "GUUAACGGUCAUAGGCCAUGGAAACUAGGAGCACCAUUUCGCUGCCAGUGAAGAAAUGAACAAAGAAAAUCUGGGCCAGGCAGGCAUCAAAAGAAAUAGUCUUGCGCUCAACCAGAAAGUCUGUAAUCAUUUUAAGGGUA"}},
  "note": "Read counts are not given, so values of variants with three or more changes are uncertain.",
  "data": [
    {"variants_of": "B1", "experiment": "self-cleavage, relative activity (ratio to wild type); higher = more cleavage; in vitro, sequencing; the parent is a self-cleaving ribozyme", "values": [
      {"variant": "U2C A24U A52G A59G A98G", "self-cleavage": 0.83},
      {"variant": "U2C A94G A126G", "self-cleavage": 1.62},
      {"variant": "U2C A18G U122G", "self-cleavage": 1.69},
      {"variant": "U2C A69U G137U", "self-cleavage": 1.7},
      {"variant": "U2C A63G A91G A135G", "self-cleavage": 1.39},
      {"variant": "U2C A5G A55G A60G A114U", "self-cleavage": 0},
      {"variant": "U2C A23G A63G A86G G123A U132C", "self-cleavage": 1.4},
      {"variant": "U2C A36G A67C A117G", "self-cleavage": 1.3},
      {"variant": "U2C A59G A68G", "self-cleavage": 0.6},
      {"variant": "U2C A47G A51G A52G", "self-cleavage": 0.46},
      {"variant": "U2C A69G A90G A110G A118G U132C", "self-cleavage": 0.06},
      {"variant": "U2A U70A A96U C113G", "self-cleavage": 0.02},
      {"variant": "U2C C42G A60G U87C", "self-cleavage": 1},
      {"variant": "U2C G48A A98G U108C", "self-cleavage": 0.01},
      {"variant": "U2C C109A U130C", "self-cleavage": 0.09},
      {"variant": "U2C A5U U39A A66G", "self-cleavage": 1.46},
      {"variant": "U2C A22G U103C", "self-cleavage": 0.56},
      {"variant": "U2C A51U A96G", "self-cleavage": 2.99},
      {"variant": "U2C A52U U122C", "self-cleavage": 0.63},
      {"variant": "U2C A22G A23G A68G A92G", "self-cleavage": 0.6},
      {"variant": "U2C A59U U122A", "self-cleavage": 1.26},
      {"variant": "U2C A59U U122C", "self-cleavage": 1.24},
      {"variant": "U2C A78G A86G U120G", "self-cleavage": 0.15},
      {"variant": "U2C A36G A69G", "self-cleavage": 0.64},
      {"variant": "U2C A47G U122C", "self-cleavage": 0.46},
      {"variant": "U2C A23G A94G A110G", "self-cleavage": 0.15},
      {"variant": "U2C A86U U124C", "self-cleavage": 1.41},
      {"variant": "U2C A52G U103C", "self-cleavage": 0.56},
      {"variant": "U2C A47G A60U", "self-cleavage": 2.09},
      {"variant": "U2C A4G A51G A52G A56G", "self-cleavage": 1.14},
      {"variant": "U2C A11G C42U G79A C101A", "self-cleavage": 0.07},
      {"variant": "U2C A67G A111U", "self-cleavage": 0.16},
      {"variant": "U2C A78G U132A", "self-cleavage": 0.45},
      {"variant": "U2C A59G A60G A64U C109U U124C", "self-cleavage": 0.13},
      {"variant": "U2C A47G A64U A78G", "self-cleavage": 0.08},
      {"variant": "U2C A11G A13U U100C", "self-cleavage": 1.81},
      {"variant": "U2C A67G U103C", "self-cleavage": 0.79},
      {"variant": "U2C A11G A51G A117G", "self-cleavage": 1.07},
      {"variant": "U2C A67G A78G U120C", "self-cleavage": 0.31},
      {"variant": "U2C A4G U100C", "self-cleavage": 1.7},
      {"variant": "U2C A23G A135U", "self-cleavage": 0.73},
      {"variant": "U2C A51U A117U", "self-cleavage": 0.34},
      {"variant": "U2C A23G A95G", "self-cleavage": 1.48},
      {"variant": "U2C A56C A95G A117U", "self-cleavage": 0.78},
      {"variant": "U2C A24G A36U", "self-cleavage": 0.64},
      {"variant": "U2C A55G U120C", "self-cleavage": 2.05},
      {"variant": "U2C A11C U19C A22C A59U", "self-cleavage": 1.18},
      {"variant": "U2C A69G A96G C112U", "self-cleavage": 0.04},
      {"variant": "U2C A47G U72G", "self-cleavage": 0.29},
      {"variant": "U2C A86G U120C", "self-cleavage": 0.41},
      {"variant": "U2C A64G A98G A126G A129G", "self-cleavage": 0.15},
      {"variant": "U2C A69G U100A", "self-cleavage": 0.57},
      {"variant": "U2C A11U U131C", "self-cleavage": 0.85},
      {"variant": "U2C A5G U9C A23G A51G", "self-cleavage": 0.87},
      {"variant": "U2C A5G A54G A55G U70G A78G A82G A92G", "self-cleavage": 0.21},
      {"variant": "U2C A24G A54G A111G U133C", "self-cleavage": 0.03},
      {"variant": "U2C A66U G80U", "self-cleavage": 0.09},
      {"variant": "U2C A66G U70C A92G", "self-cleavage": 0.67},
      {"variant": "U2C A30G A86U U102C U139A", "self-cleavage": 1.95},
      {"variant": "U2C A18U U103C U108A", "self-cleavage": 0.04},
      {"variant": "U2C A69U A92G A95G", "self-cleavage": 1.55},
      {"variant": "U2C A22G C105U U131C", "self-cleavage": 0.12},
      {"variant": "U2C A68U A92G A117U U124C", "self-cleavage": 1.9},
      {"variant": "U2C A11G A24U", "self-cleavage": 1.23},
      {"variant": "U2C A54G U103C", "self-cleavage": 1.2},
      {"variant": "U2C A5C A22G A60G A90G A96G A117G", "self-cleavage": 1.16},
      {"variant": "U2C C6U A18U A54U", "self-cleavage": 1.02},
      {"variant": "U2C A47U U102A", "self-cleavage": 0.5},
      {"variant": "U2C A30U A47G A52G A117U", "self-cleavage": 0.08},
      {"variant": "U2C A5G A60C A82U U108G", "self-cleavage": 0},
      {"variant": "U2C A13G A52G A63G", "self-cleavage": 1.51},
      {"variant": "U2C A67G A114U A116G U130C", "self-cleavage": 0.01},
      {"variant": "U2C A67U U122C A135G", "self-cleavage": 0.82},
      {"variant": "U2C G50A A66C", "self-cleavage": 1.58},
      {"variant": "U2C A56C U108A", "self-cleavage": 0.05},
      {"variant": "U2C A47U A59U A96G A117G U130C", "self-cleavage": 0.21},
      {"variant": "U2C A18U C101U", "self-cleavage": 0.18},
      {"variant": "U2C A62C U72C A82U U102C", "self-cleavage": 0.4},
      {"variant": "U2C C6A A86C U100C", "self-cleavage": 0.49},
      {"variant": "U2C A22G A54G A91G C113A", "self-cleavage": 0.03},
      {"variant": "U2C A52G U70C U108C", "self-cleavage": 0.02},
      {"variant": "U2C A30G A36C A129G A135G", "self-cleavage": 1.14},
      {"variant": "U2C A66G A69G G79U A92U", "self-cleavage": 0.1}
    ]}
  ]
}
